Reference: the supplement of paper PMC8728848
Some of the results follow.

Key:
Experiment in all cases: glycan array binding signal (z-score within array); higher = stronger binding
Details in all cases: glycan notation: IUPAC condensed, linker removed
[1] = biological target: Fuc(a1-2)[GalNAc(b1-3)]Gal
In short: (§1)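 Glycan array binding is given as a within-array Z-score, which can be read as non-binding when negative. The arrays, 3228 of them, came from the Consortium for Functional Glycomics database and were retained only where the protein sequence was available. Z-scores were averaged across arrays of the same protein sequence at different concentrations or buffers and across linkers.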

Fuc(a1-3)GlcNAc = biological target: Fuc(a1-3)GlcNAc
In short: as §1

[2] = biological target: Fuc(a1-3)[Gal(b1-4)]Glc6S
In short: as §1

[3] = biological target: Fuc(a1-3)[Gal(b1-4)]GlcNAc
In short: as §1

[4] = biological target: Fuc(a1-3)[Gal(b1-4)]GlcNAc(b1-2)Man(a1-3)[Fuc(a1-3)[Gal(b1-4)]GlcNAc(b1-2)Man(a1-6)]Man(b1-4)GlcNAc(b1-4)GlcNAc
In short: as §1

[5] = biological target: Fuc(a1-3)[Gal(b1-4)]GlcNAc(b1-2)Man(a1-6)[Gal(b1-4)GlcNAc(b1-2)Man(a1-3)]Man(b1-4)GlcNAc(b1-4)GlcNAc
In short: as §1

[6] = biological target: Fuc(a1-3)[Gal(b1-4)]GlcNAc(b1-3)Gal(b1-3)[Fuc(a1-4)]GlcNAc
In short: as §1

[7] = biological target: Fuc(a1-3)[Gal(b1-4)]GlcNAc(b1-4)Gal(b1-4)[Fuc(a1-3)]GlcNAc
In short: as §1

[8] = biological target: Fuc(a1-3)[Gal(b1-4)]GlcNAc(b1-4)Gal(b1-4)[Fuc(a1-3)]GlcNAc(b1-4)Gal(b1-4)[Fuc(a1-3)]GlcNAc
In short: as §1

[9] = biological target: Fuc(a1-3)[Gal(b1-4)]GlcNAc6S
In short: as §1

[10] = biological target: Fuc(a1-3)[Gal3S(b1-4)]Glc
In short: as §1

[11] = biological target: Fuc(a1-3)[Gal3S(b1-4)]Glc6S
In short: as §1

[12] = biological target: Fuc(a1-3)[Gal3S(b1-4)]GlcNAc
In short: as §1

[13] = biological target: Fuc(a1-3)[Gal3S(b1-4)]GlcNAc6S
In short: as §1

[14] = biological target: Fuc(a1-3)[GalNAc(b1-4)]Gal(b1-4)GlcNAc
In short: as §1

[15] = biological target: Fuc(a1-3)[GalNAc(b1-4)]GlcNAc
In short: as §1

Fuc(a1-4)GlcNAc = biological target: Fuc(a1-4)GlcNAc
In short: as §1

Fuc(b1-3)GlcNAc = biological target: Fuc(b1-3)GlcNAc
In short: as §1

Gal(a1-2)Gal = biological target: Gal(a1-2)Gal
In short: as §1

Gal(a1-3)Gal = biological target: Gal(a1-3)Gal
In short: as §1

Gal(a1-3)Gal(b1-3)Glc = biological target: Gal(a1-3)Gal(b1-3)Glc
In short: as §1

Gal(a1-3)Gal(b1-3)GlcNAc = biological target: Gal(a1-3)Gal(b1-3)GlcNAc
In short: as §1

Gal(a1-3)Gal(b1-4)Glc = biological target: Gal(a1-3)Gal(b1-4)Glc
In short: as §1

Gal(a1-3)Gal(b1-4)GlcNAc = biological target: Gal(a1-3)Gal(b1-4)GlcNAc
In short: as §1

[16] = biological target: Gal(a1-3)Gal(b1-4)[Fuc(a1-3)]GalNAc
In short: as §1

[17] = biological target: Gal(a1-3)Gal(b1-4)[Fuc(a1-3)]GlcNAc
In short: as §1

Gal(a1-3)GalNAc = biological target: Gal(a1-3)GalNAc
In short: as §1

Gal(a1-3)GlcNAc = biological target: Gal(a1-3)GlcNAc
In short: as §1

[18] = biological target: Gal(a1-3)[Gal(a1-4)]Gal(b1-4)GlcNAc
In short: as §1

Gal(a1-4)Gal(b1-4)Gal = biological target: Gal(a1-4)Gal(b1-4)Gal
In short: as §1

Gal(a1-4)Gal(b1-4)GalNAc = biological target: Gal(a1-4)Gal(b1-4)GalNAc
In short: as §1

Gal(a1-4)Gal(b1-4)Glc = biological target: Gal(a1-4)Gal(b1-4)Glc
In short: as §1

Gal(a1-4)Gal(b1-4)GlcNAc = biological target: Gal(a1-4)Gal(b1-4)GlcNAc
In short: as §1

Gal(a1-4)GlcNAc = biological target: Gal(a1-4)GlcNAc
In short: as §1

Gal(a1-6)Glc = biological target: Gal(a1-6)Glc
In short: as §1

Gal(b1-2)Gal = biological target: Gal(b1-2)Gal
In short: as §1

Gal(b1-3)Gal = biological target: Gal(b1-3)Gal
In short: as §1

Gal(b1-3)Gal(b1-4)GlcNAc = biological target: Gal(b1-3)Gal(b1-4)GlcNAc
In short: as §1

B1: NcCVNHO (Neurospora crassa), Q7S6U4 (protein)
chain: MSFHVTAEDARIEVRDNRTILFARLRREDGEWNDASYELDQIIGNNDGHFQWGGQNFTETAEDIRFHPKEGAAEQPILRARLRDCNGEFHDRDVNLTEIVENVNGEFQAKF
B1 was tested, and the “glycan array binding signal (z-score)” value [1] was -0.236, the “glycan array binding signal (z-score)” value (Fuc(a1-3)GlcNAc) was -0.136 and the “glycan array binding signal (z-score)” value [2] was -0.15. The “glycan array binding signal (z-score)” value [3] was -0.207, the “glycan array binding signal (z-score)” value [4] was -0.194 and the “glycan array binding signal (z-score)” value [5] was -0.185. The “glycan array binding signal (z-score)” value [6] was -0.169, the “glycan array binding signal (z-score)” value [7] was -0.175 and the “glycan array binding signal (z-score)” value [8] was -0.212. For the same binder, the “glycan array binding signal (z-score)” value [9] was -0.178, the “glycan array binding signal (z-score)” value [10] was -0.146 and the “glycan array binding signal (z-score)” value [11] was -0.15. For the same binder, the “glycan array binding signal (z-score)” value [12] was -0.189, the “glycan array binding signal (z-score)” value [13] was -0.172 and the “glycan array binding signal (z-score)” value [14] was -0.152. The “glycan array binding signal (z-score)” value [15] was -0.254, the “glycan array binding signal (z-score)” value (Fuc(a1-4)GlcNAc) was -0.238 and the “glycan array binding signal (z-score)” value (Fuc(b1-3)GlcNAc) was -0.209. For the same binder, the “glycan array binding signal (z-score)” value (Gal(a1-2)Gal) was -0.225, the “glycan array binding signal (z-score)” value (Gal(a1-3)Gal) was -0.218 and the “glycan array binding signal (z-score)” value (Gal(a1-3)Gal(b1-3)Glc) was 0.103. For the same binder, the “glycan array binding signal (z-score)” value (Gal(a1-3)Gal(b1-3)GlcNAc) was -0.23, the “glycan array binding signal (z-score)” value (Gal(a1-3)Gal(b1-4)Glc) was -0.256 and the “glycan array binding signal (z-score)” value (Gal(a1-3)Gal(b1-4)GlcNAc) was -0.21. The “glycan array binding signal (z-score)” value [16] was -0.114, the “glycan array binding signal (z-score)” value [17] was -0.266 and the “glycan array binding signal (z-score)” value (Gal(a1-3)GalNAc) was -0.225. The “glycan array binding signal (z-score)” value (Gal(a1-3)GlcNAc) was -0.116, the “glycan array binding signal (z-score)” value [18] was -0.219 and the “glycan array binding signal (z-score)” value (Gal(a1-4)Gal(b1-4)Gal) was -0.168. The “glycan array binding signal (z-score)” value (Gal(a1-4)Gal(b1-4)GalNAc) was -0.143, the “glycan array binding signal (z-score)” value (Gal(a1-4)Gal(b1-4)Glc) was 0.495 and the “glycan array binding signal (z-score)” value (Gal(a1-4)Gal(b1-4)GlcNAc) was 0.191. The “glycan array binding signal (z-score)” value (Gal(a1-4)GlcNAc) was -0.196, the “glycan array binding signal (z-score)” value (Gal(a1-6)Glc) was 1.97 and the “glycan array binding signal (z-score)” value (Gal(b1-2)Gal) was -0.217. The “glycan array binding signal (z-score)” value (Gal(b1-3)Gal) was -0.202 and the “glycan array binding signal (z-score)” value (Gal(b1-3)Gal(b1-4)GlcNAc) was -0.149.
